Holding throughout (assay): two-hybrid; one-hybrid assay: Kar4p-Gal4 DNA-binding domain recruits endogenous Ste12p to drive the HIS3 reporter in PJ69-4A; 10-fold serial dilutions on SC-HIS with 3 uM alpha-factor, 30 degrees; graded ++++ to -
Assay [1] has as its target T1, Kar4p A85P fused to the Gal4p DNA-binding domain (S. cerevisiae) (UniProt P25583).
T1 sequence: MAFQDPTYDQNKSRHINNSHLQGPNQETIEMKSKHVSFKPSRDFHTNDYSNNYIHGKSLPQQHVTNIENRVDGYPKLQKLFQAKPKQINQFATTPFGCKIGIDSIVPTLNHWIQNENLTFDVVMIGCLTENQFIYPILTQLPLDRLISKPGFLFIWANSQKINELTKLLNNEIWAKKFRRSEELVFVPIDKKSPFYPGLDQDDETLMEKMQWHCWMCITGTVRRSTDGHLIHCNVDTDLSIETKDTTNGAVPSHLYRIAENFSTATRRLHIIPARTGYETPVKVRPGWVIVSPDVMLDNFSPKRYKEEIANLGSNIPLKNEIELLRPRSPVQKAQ

Assay [2] concerns the target T2, Kar4p E260G fused to the Gal4p DNA-binding domain (S. cerevisiae) (UniProt P25583).
T2 sequence: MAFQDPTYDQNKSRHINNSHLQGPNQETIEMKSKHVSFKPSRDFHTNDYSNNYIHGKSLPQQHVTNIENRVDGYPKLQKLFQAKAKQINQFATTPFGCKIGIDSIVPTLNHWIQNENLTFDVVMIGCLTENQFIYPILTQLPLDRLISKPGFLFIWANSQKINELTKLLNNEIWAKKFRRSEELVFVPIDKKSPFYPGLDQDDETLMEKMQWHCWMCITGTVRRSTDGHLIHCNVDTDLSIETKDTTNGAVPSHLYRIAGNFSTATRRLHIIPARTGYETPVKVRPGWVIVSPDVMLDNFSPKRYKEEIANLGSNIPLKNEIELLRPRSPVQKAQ

The target of assay [3] is T3, Kar4p E260K fused to the Gal4p DNA-binding domain (S. cerevisiae) (UniProt P25583).
T3 sequence: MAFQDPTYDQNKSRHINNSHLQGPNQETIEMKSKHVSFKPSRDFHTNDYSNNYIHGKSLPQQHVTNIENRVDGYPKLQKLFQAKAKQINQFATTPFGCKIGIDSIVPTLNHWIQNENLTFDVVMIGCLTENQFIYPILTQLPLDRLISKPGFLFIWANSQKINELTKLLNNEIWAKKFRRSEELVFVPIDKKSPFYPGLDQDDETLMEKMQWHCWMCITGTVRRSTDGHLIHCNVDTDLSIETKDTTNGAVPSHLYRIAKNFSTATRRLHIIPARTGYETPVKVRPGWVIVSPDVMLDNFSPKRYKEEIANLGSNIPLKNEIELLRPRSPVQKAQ

Assay [4] addresses T4, Kar4p G126A fused to the Gal4p DNA-binding domain (S. cerevisiae) (UniProt P25583).
T4 sequence: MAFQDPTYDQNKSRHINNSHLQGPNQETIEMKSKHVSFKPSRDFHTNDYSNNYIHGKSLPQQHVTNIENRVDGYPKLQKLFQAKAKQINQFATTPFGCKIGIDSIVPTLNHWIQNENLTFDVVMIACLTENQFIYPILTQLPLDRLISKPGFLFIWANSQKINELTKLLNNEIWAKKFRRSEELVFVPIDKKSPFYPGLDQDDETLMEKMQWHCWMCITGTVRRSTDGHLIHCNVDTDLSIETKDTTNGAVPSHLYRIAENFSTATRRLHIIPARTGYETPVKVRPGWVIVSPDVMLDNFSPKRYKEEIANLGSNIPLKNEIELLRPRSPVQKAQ

Assay [5] addresses T5, Kar4p L255F fused to the Gal4p DNA-binding domain (S. cerevisiae) (UniProt P25583).
T5 sequence: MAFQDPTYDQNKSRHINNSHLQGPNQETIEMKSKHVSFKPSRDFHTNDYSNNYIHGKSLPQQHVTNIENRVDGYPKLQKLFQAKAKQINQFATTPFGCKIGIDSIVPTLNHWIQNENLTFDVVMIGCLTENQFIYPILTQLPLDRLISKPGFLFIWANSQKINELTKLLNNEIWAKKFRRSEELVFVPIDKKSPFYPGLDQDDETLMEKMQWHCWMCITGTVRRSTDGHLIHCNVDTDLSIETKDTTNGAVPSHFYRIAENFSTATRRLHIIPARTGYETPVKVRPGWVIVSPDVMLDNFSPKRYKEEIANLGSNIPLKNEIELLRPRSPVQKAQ

Assay [6] concerns the target T6, Kar4p M207R fused to the Gal4p DNA-binding domain (S. cerevisiae) (UniProt P25583).
T6 sequence: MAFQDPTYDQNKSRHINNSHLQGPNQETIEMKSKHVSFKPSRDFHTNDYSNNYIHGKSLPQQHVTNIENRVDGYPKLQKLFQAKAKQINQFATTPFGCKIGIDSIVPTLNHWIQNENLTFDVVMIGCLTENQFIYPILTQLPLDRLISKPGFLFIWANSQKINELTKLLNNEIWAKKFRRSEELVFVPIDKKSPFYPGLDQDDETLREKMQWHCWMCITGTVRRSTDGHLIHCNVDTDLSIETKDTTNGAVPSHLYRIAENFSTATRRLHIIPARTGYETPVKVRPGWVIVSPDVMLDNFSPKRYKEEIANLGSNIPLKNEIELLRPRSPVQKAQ

Results are given in words; binding and its absence hold for the method and conditions named. Some results given as binding are weak or reduced against the parent protein; the word gives no strength. Sequences can lack the tags named with a protein.

B1: Ste12p (protein, UniProt P13574 1-688)
chain: MKVQITNSRTEEILKVQANNENDEVSKATPGEVEESLRLIGDLKFFLATAPVNWQENQIIRRYYLNSGQGFVSCVFWNNLYYITGTDIVKCCLYRMQKFGREVVQKKKFEEGIFSDLRNLKCGIDATLEQPKSEFLSFLFRNMCLKTQKKQKVFFWFSVAHDKLFADALERDLKRESLNQPSTTKPVNEPALSFSYDSSSDKPLYDQLLQHLDSRRPSSTTKSDNSPPKLESENFKDNELVTVTNQPLLGVGLMDDDAPESPSQINDFIPQKLIIEPNTLELNGLTEETPHDLPKNTAKGRDEEDFPLDYFPVSVEYPTEENAFDPFPPQAFTPAAPSMPISYDNVNERDSMPVNSLLNRYPYQLSVAPTFPVPPSSSRQHFMTNRDFYSSNNNKEKLVSPSDPTSYMKYDEPVMDFDESRPNENCTNAKSHNSGQQTKQHQLYSNNFQQSYPNGMVPGYYPKMPYNPMGGDPLLDQAFYGADDFFFPPEGCDNNMLYPQTATSWNVLPPQAMQPAPTYVGRPYTPNYRSTPGSAMFPYMQSSNSMQWNTAVSPYSSRAPSTTAKNYPPSTFYSQNINQYPRRRTVGMKSSQGNVPTGNKQSVGKSAKISKPLHIKTSAYQKQYKINLETKARPSAGDEDSAHPDKNKEISMPTPDSNTLVVQSEEGGAHSLEVDTNRRSDKNLPDAT
With B1, the binding result in assay [1] is recorded as “binds”; in assay [2], “binds”; in assay [3], “binds”; in assay [4] it was “no binding”; in assay [5], “no binding”; in assay [6] it was “binds”.
